For experiment [1], the target named is T1, CD47 (human, UniProt Q08722). The experiment is described as follows: cell binding (FACS); PC-3 cells.
Experiment [2] deals with T1, CD47. The experiment in a line: blocking of FITC-SIRPα-Fc binding to cells; Jurkat cells.

The text below walks through data of patent publication US20210388043A1 (published 2021).

For orientation: EC50 means the concentration needed to bring the measured effect to its halfway point. One may read the IC50 as the concentration that inhibits the measured activity by half. High values mean lower potency, low ones higher potency.

B1: SIRPα-Fc (Fc fusion)
chain: SCAWSGVAGEE[left out - about 120 residues]KPSAPVVSGPAARATPQHTVSFTCESHGFSPRDITLKWFKNGNELSDFQTNVDPVGESVSYSIHSTAKVVLTREDVHSQVICEVAHVTLQGDPLRGTANLSETIRVPPTLEVTQQPVRAENQVNVTCQVRKFYPQRLQLTWLENGNVSRTETASTVTENKDGTYNWMSWLLVNVSAHRDDVKLTCQVEHDGQPAVSKSHDLKVSAHPKEQGSNTAAENTGSNERNEF[left out - human IgG1 Fc]
Take B1: the midpoint of the response in experiment [1], the EC50, lay at 1.64 µg/mL. This molecule registered an IC50 in experiment [2] of 30 nM.

B2: SIRPαD1-Fc (Fc fusion)
chain: not shown
In experiment [2], B2 had an IC50 of 26.1 nM. This counts as double-digit nanomolar.
